# Data from ChEMBL document CHEMBL4888484, “Replenishing the malaria drug discovery pipeline: Screening and hit evaluation of the MMV Hit Generation Library 1 (HGL1) against asexual blood stage Plasmodium falciparum ,using a nano luciferase reporter read-out” (2022).
# Hit rate of the full screen: of about 150,000 compounds, about 540 (0.36%) showed an effect of 50% or more. This is one part of the list.
# Tested on: Plasmodium falciparum
# Assay: Primary screen in NF54 nanoGlo assay, in single point, at 2uM, 72h; a lower Z score goes with more inhibition
# Type: functional, Erythrocyte
# Conditions: timepoint 72 hour
SMILES,% Inhibition,Z score
Cc1cccc(NC(=O)Nc2c(-c3ccncc3)[nH]c3c(Cl)cccc23)c1,-1%,0.23
C/C=C/[C@@H]1OC(c2ccccc2)(c2ccccc2)c2ccccc2N1C(C)=O,4%,-0.63
Cc1n[nH]c(C2CC2)c1C(=O)NCC1(CN2CCOCC2)CC1,-8%,1.62
CCN(C[C@H]1CCCO1)C(=O)c1cc(Cn2c(C)nc3ccccc32)[nH]n1,-11%,1.98
COc1ccc(C)cc1S(=O)(=O)N1C[C@H]2CC[C@@H](C1)N(C)C2,-13%,1.28
Cc1cc(C)c(-n2cccn2)c(CN2CCN(CC(=O)O)CC2)c1,-22%,2
CCc1ccc(Cn2cnc(-c3ccccc3)c2-c2nccn2CC)nc1,-9%,1.51
C[C@H](NS(=O)(=O)c1ccco1)c1cnn(CC2CCC2)c1,-5%,0.85
CCN(Cc1cn2cc(C)ccc2n1)Cc1nc(C)no1,1%,-0.23
Cc1occc1C(=O)N(Cc1ccccc1)[C@H]1CCS(=O)(=O)C1,-4%,0.39
O=C(C[C@H]1CCS(=O)(=O)C1)N1CCN(c2cccc(C(F)(F)F)c2)CC1,2%,-0.17
CC(C1CC1)N(C)S(=O)(=O)NCC1CCN(C2CC2)C1 (stereo not given),3%,-0.43
C[C@H](O)C(=O)N1CCC(CNC(=O)c2cncs2)CC1,-7%,1.34
COc1cc(Cc2noc([C@@H](C)c3cn(C)c4ccccc34)n2)ccc1S(C)(=O)=O,3%,-0.58
Cc1cc(-c2nnn(CC(O)CN3CC(C)OC(C)C3)n2)ccc1F (stereo not given),-5%,0.99
CN1c2ccc(F)cc2N(CCNC(=O)c2cncc(F)c2)S1(=O)=O,6%,-0.77
CCn1c([C@H]2CCCN(C(=O)c3cccc(C)n3)C2)nn(CCN(C)C)c1=O,-6%,0.81
O=S(=O)(NC[C@H](OCCO)c1ccsc1)c1ccc(Cl)s1,-8%,0.91
CC[C@H](CO)NC(=O)Cc1c(Cl)cccc1Cl,-10%,0.87
Cc1nccn1Cc1nc(C(C)C)no1,-21%,1.82
COc1ccc(CN2CCN(C)CC2)cc1NCc1cccnc1,-18%,1.68
O=C(NC(c1ccccc1)C(F)F)N1CC2COCC(C1)O2 (stereo not given),-12%,0.99

SMILES,% Inhibition,Z score
Cc1nn(C)c(N2CCC2)c1NC(=O)CC1CC2CCC1C2 (stereo not given),-14%,1.81
OC1(c2cccc(C(F)(F)F)c2)CCN(c2cnccn2)CC1,8%,-1.11
O=C(Nc1ccccc1)N(Cc1ccc(Br)o1)c1ccccn1,-1%,0.2
Cn1ccc(C2NC(=O)N(C(c3ccc(F)cc3)C3CC3)C2=O)n1 (stereo not given),5%,-0.72
COc1ccc2c(c1)C(C(=O)N[C@@H](C#N)C(C)C)CC2 (stereo not given in full),7%,-1.31
CNS(=O)(=O)CCNS(=O)(=O)c1cc(-c2cc(C(F)(F)F)on2)oc1C,-10%,1.02
Cc1cccc(NC(=O)Cc2nc(C)c(-c3ccccc3)s2)c1,-2%,0.4
O=C(NCc1ccc(Br)cc1)C1CCN(c2nc3nc[nH]c(=O)c3s2)CC1,-14%,2.16
CNC(=NCCc1cccc(OC)n1)NCc1ccco1,-15%,1.62
COc1ccc(N2CCOCC2)c(NC(=O)c2ccc(-c3cccc(Cl)c3)o2)c1,0%,0.03
O=C(Nc1ccon1)c1ccc(Oc2nccs2)cc1,-19%,3.52
O=C(Nc1nc(C(=O)NCCN2CCOCC2)cs1)c1cc(F)cc(F)c1,3%,-0.39
Cc1nsc(NC(=O)[C@]2(C)CCCO2)c1C#N,24%,-2.78
COc1ccc(-n2nc(C)c3sc(N4CCCN(C(=O)c5ccc6c(c5)OCO6)CC4)nc32)cc1,-5%,0.6
Cc1ccc(NS(=O)(=O)c2cc(-c3nnc(C(=O)N4CCCCC4)o3)sc2C)c(Cl)c1,-7%,0.98
CN(CCO)CC1c2ccccc2C(CN(C)CCO)c2ccccc21 (stereo not given),1%,-0.14
CC1(C)CCC(CC(=O)NCCOC(N)=O)CC1,-11%,1.28
Cc1nn2c(nc1=O)-c1ccccc1N[C@@H]2c1ccc(C(=O)O)cc1,9%,-1.54
COc1ccc(S(=O)(=O)N2CCOCC2)cc1N(C)S(C)(=O)=O,5%,-0.68
COC[C@@H]1C[C@H](OC)CN1S(=O)(=O)c1cnn(C)c1,-5%,0.71
CC1(NC(=O)CC2CC3CCC2C3)CCS(=O)(=O)C1 (stereo not given),-2%,0.38
Cc1cccc(Cl)c1S(=O)(=O)N1CC(S(C)(=O)=O)C1,-7%,1.06

SMILES,% Inhibition,Z score
NC1CCOC(C2CCCCN2S(=O)(=O)c2ccc(C(F)(F)F)s2)C1 (stereo not given),4%,-0.63
CC(C)(C)OC(=O)N1CCC[C@@H]1CNC(=O)Nc1ccccn1,-13%,1.66
Cc1nc(C(=O)OCCOC(C)C)cs1,-11%,1.33
C=CCCC(=O)NC[C@](C)(O)c1cc2ccccc2o1,-13%,2.64
CCN(C)c1ccccc1CNC(=O)N1CCC2(CC1)OCC(=O)N2C,-10%,1.72
CCS(=O)(=O)C[C@H](C)NC(=O)c1cc(C)nc(NC)n1,4%,-0.71
OCCN1CCN(c2nc(-c3c[nH]c4ccccc34)nc3c2CNC3)CC1,-8%,0.97
O=S(=O)(c1cccc(Cl)c1)N1CCc2nc(N3CCc4ccccc4C3)nc(N3CCOCC3)c2C1,1%,-0.11
CCc1ccccc1NC(=O)CN1CCN(C(=O)C2CC3C=CC2C3)CC1 (stereo not given),-10%,1.4
CN(C)C(=O)NCc1cc2n(n1)CCCN(Cc1nc3ccccc3n1C)C2,-3%,0.33
CC(C)c1cc(CN2CCC3(CC2)CN(CCOc2ccccc2)C(=O)O3)on1,-3%,0.7
Cc1cc(NC(=O)CCc2nc(-c3ccc4cc[nH]c4c3)no2)nn1C,6%,-0.99
c1cc(CN2CCCCC2)cc(-c2noc([C@@H]3C[C@H]3c3cccnc3)n2)c1,-15%,2.09
CN1CCO[C@H](c2nc(-c3sc4ccccc4c3Cl)no2)C1,-13%,1.15
N#Cc1cc(CNC2CCCC2C#N)ccc1F (stereo not given),-42%,4.87
Cc1oc(-c2ccccc2)nc1Cn1cc(Br)c(C(C)C)n1,4%,-0.38
Nc1c[nH]cc(Br)c1=S,-5%,1.03
COc1ccc(C(=O)c2c(N)nc3n2CCCC3)cc1OC,-5%,0.53
O=C(c1cc[nH]n1)N1CCCC1CC(O)c1ccccc1 (stereo not given),-4%,0.63
Cc1nc(-c2ccc(N3CCN(C(=O)c4ccno4)CC3)nc2)no1,-1%,0.1
Cc1c(-c2ccc(Cl)cc2Cl)nc2ccccc2c1C(=O)Nc1c(C)n(C)n(-c2ccccc2)c1=O,0%,-0.03
Clc1cccc(-c2nc(N3CCN(c4ccccn4)CC3)nc3c2COc2ccccc2-3)c1,-9%,1.32

SMILES,% Inhibition,Z score
CCCc1cnc(N(C)C[C@H]2CCCO2)nc1,-4%,0.4
CCN(CC(=O)O)C(=O)[C@@H](C)Cc1ccccc1,4%,-0.5
C[C@@](CO)(Cn1cnc2ccccc21)NC(=O)Cc1ccco1,6%,-0.8
C[C@@H](Cc1ccc2c(c1)CCO2)NC(=O)c1cn(C)nn1,1%,-0.09
Cn1cccc1C(=O)C(=O)N1C[C@@H]2CC[C@H]1CN(C(=O)c1cnccn1)C2,-13%,1.68
O=C(NCCCc1nnc2ccccn12)Nc1cccc(N2CCCC2=O)c1,8%,-1.06
N#Cc1cc(O)c(-c2c(O)n[nH]c2-c2ccccc2)cc1C#N,33%,-0.41
Cc1c(C(=O)NC[C@H]2CCCN(Cc3ccco3)C2)n(C)c2ccc(F)cc12,-14%,1.8
CNc1snc(C)c1C(=O)Nc1ccc2c(c1)OCCCO2,-2%,0.32
Cc1ccc2ncccc2c1CNS(=O)(=O)N(C)C(C)C,-24%,2.31
O=C(c1cnc(C2CC2)[nH]c1=O)N1CC(Oc2ccccc2F)C1,-3%,0.35
Cc1noc(OCC(=O)c2c[nH]c3ccccc23)n1,-3%,0.44
C=CCNC(=O)C(=O)Nc1c(F)c(F)c(F)c(F)c1F,-11%,1.37
CCCc1nnc(-c2cccnc2N2CCN(C(=O)c3ccccc3)CC2)o1,-5%,0.52
Cc1ccc(-n2cnnc2CNC(=O)c2ccnc(OCC3CCOCC3)c2)cc1,-6%,1.06
CCc1nnc2n1C[C@@H](CNc1nnc(C)c(C)c1C#N)CC2,-8%,1.61
CN(C)C[C@H]1CN(Cc2cc(-c3ccccc3)no2)CCO1,-10%,1.05
CC1CCCCC1(NC(=O)OC(C)(C)C)C(=O)NCCN1CCOCC1 (stereo not given),-7%,1.06
Cc1cc(C)c(S(=O)(=O)Cc2ccccc2)c(O)n1,32%,-0.52
